Test results: a collection of fitness landscapes (doi:10.1016/j.celrep.2020.107928)
The full ranking holds about 81,000 sequences; the median of “one-hybrid fitness for binding parS DNA” is about -0.17, and the highest 2% start at about 0.51. This is one part of the list.

B1: Caulobacter ParB omega fusion; a variant is named by its letters at X, in order, B8GW30 (parent)
chain: MESVVVGEPGMSEGRRGLGRGLSALLGEVDAAPAQAPGEQLGGSREAPIEILQRNPDQPRRTFREEDLEDLSNSIREKGVLQPILVRPSPDTAGEYQIVAGERAWRAAQRAGLKTVPIMVRELDDLAVLEIGIIENVQRADLNVLEEALSYKVLMEKFERTQENIAQTIGKSXSHVANXMRLLXLPDEVQSYLVSGELTAXHARAIAAAADPVALAKQIIEGGLSVRETEALARKAPNLSAGKSKGGRPPRVKDTDTQALESDLSSVLGLDVSIDHRGSTGTLTITYATLEQLDDLCNRLTRGI

Variants of: B1
Experiment: one-hybrid fitness for binding parS DNA (scaled: cognate 1, non-cognate 0); higher = stronger binding
Settings: with parS DNA site
Outline: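 The reporter was HIS3, with the binding site 19 bp from the promoter, in E. coli USO used for bacterial one-hybrid selection of Caulobacter ParB libraries with four specificity codons randomised. Growth was on M9 lacking histidine, with 0.1 mM IPTG and 5 mM 3-AT, for 48 hours at 37°C. Illumina sequencing covered plasmids before and after selection; three replicate libraries were pooled and variants with under 10 reads dropped. A fitness score is the log change in variant-to-wild-type read ratio, rescaled to the cognate and non-cognate references.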

Row | Variant | one-hybrid fitness for binding parS DNA
1 | NMHR | ≤ 0.2
2 | MGRS | ≤ 0.2
3 | EASS | ≤ 0.2
4 | MCMY | ≤ 0.2
5 | ASEF | ≤ 0.2
6 | DLPK | ≤ 0.2
7 | ELNS | ≤ 0.2
8 | KAPE | ≤ 0.2
9 | KITC | ≤ 0.2
10 | VPGF | ≤ 0.2
11 | KHTC | ≤ 0.2
12 | MRPA | ≤ 0.2
13 | KSPI | ≤ 0.2
14 | RTIK | ≤ 0.2
15 | KALP | ≤ 0.2
16 | PNHM | ≤ 0.2
17 | SHSA | ≤ 0.2
18 | QTMQ | ≤ 0.2
19 | DQRF | ≤ 0.2
20 | MLPL | ≤ 0.2
21 | QQPF | ≤ 0.2
22 | PPTD | ≤ 0.2
23 | TQWV | ≤ 0.2
24 | QKRM | ≤ 0.2
25 | TFGD | ≤ 0.2

Row | Variant | one-hybrid fitness for binding parS DNA
26 | SEVF | ≤ 0.2
27 | KRCY | ≤ 0.2
28 | PHLS | ≤ 0.2
29 | KTST | ≤ 0.2
30 | TELC | ≤ 0.2
31 | TRCT | ≤ 0.2
32 | PVLA | ≤ 0.2
33 | DNNF | ≤ 0.2
34 | NADR | ≤ 0.2
35 | QMNC | ≤ 0.2
36 | QHHQ | ≤ 0.2
37 | TIAT | ≤ 0.2
38 | IIAT | ≤ 0.2
39 | PISV | ≤ 0.2
40 | QNSS | ≤ 0.2
41 | PKYW | ≤ 0.2
42 | RKDQ | ≤ 0.2
43 | CWKY | ≤ 0.2
44 | LNYR | ≤ 0.2
45 | RSNP | ≤ 0.2
46 | YLKH | 0.358
47 | KRWD | ≤ 0.2
48 | WGAR | ≤ 0.2
49 | CPTC | ≤ 0.2
50 | KMRF | ≤ 0.2

Row | Variant | one-hybrid fitness for binding parS DNA
51 | PSHF | ≤ 0.2
52 | PMNR | ≤ 0.2
53 | NFPI | ≤ 0.2
54 | LGDL | ≤ 0.2
55 | SKYY | ≤ 0.2
56 | CEQI | ≤ 0.2
57 | SLNY | ≤ 0.2
58 | QNCC | ≤ 0.2
59 | QSFI | ≤ 0.2
60 | MKHC | ≤ 0.2
61 | AYTE | ≤ 0.2
62 | PQNL | ≤ 0.2
63 | TCVS | ≤ 0.2
64 | LKGL | ≤ 0.2
65 | QTLW | ≤ 0.2
66 | SSMR | ≤ 0.2
67 | KITY | ≤ 0.2
68 | SVHD | ≤ 0.2
69 | MYHY | ≤ 0.2
70 | MGLY | ≤ 0.2
71 | IGCR | ≤ 0.2
72 | PWGK | ≤ 0.2
73 | QAFQ | ≤ 0.2
74 | RQRQ | ≤ 0.2
75 | WVNS | ≤ 0.2

Row | Variant | one-hybrid fitness for binding parS DNA
76 | WTSS | ≤ 0.2
77 | TRQF | ≤ 0.2
78 | ETNE | ≤ 0.2
79 | YRML | ≤ 0.2
80 | TSDG | ≤ 0.2
81 | KLSC | ≤ 0.2
82 | NDKC | ≤ 0.2
83 | HYPG | ≤ 0.2
84 | NLRS | ≤ 0.2
85 | NNLM | ≤ 0.2
86 | DYLG | ≤ 0.2
87 | DYCG | ≤ 0.2
88 | QNLL | ≤ 0.2
89 | HDPC | ≤ 0.2
90 | NTVW | ≤ 0.2
91 | MLIR | ≤ 0.2
92 | NATT | ≤ 0.2
93 | YGVC | ≤ 0.2
94 | MRIW | ≤ 0.2
95 | FSRR | ≤ 0.2
96 | AVPK | ≤ 0.2
97 | RGGW | ≤ 0.2
98 | TTKS | ≤ 0.2
99 | MNLW | ≤ 0.2
100 | QYMA | ≤ 0.2

Row | Variant | one-hybrid fitness for binding parS DNA
101 | KGMW | ≤ 0.2
102 | QSDL | ≤ 0.2
103 | APRV | ≤ 0.2
104 | IFTT | ≤ 0.2
105 | LDMI | ≤ 0.2
106 | HFGI | ≤ 0.2
107 | SMRA | ≤ 0.2
108 | WPKS | ≤ 0.2
109 | KKRG | ≤ 0.2
110 | PPPT | ≤ 0.2
111 | MLNR | ≤ 0.2
112 | RNNK | ≤ 0.2
113 | RDSQ | ≤ 0.2
114 | IQTG | ≤ 0.2
115 | YRLR | ≤ 0.2
116 | WWQS | ≤ 0.2
117 | LITM | ≤ 0.2
118 | EAHN | ≤ 0.2
119 | VDRI | ≤ 0.2
120 | CHDG | ≤ 0.2
121 | FCAG | ≤ 0.2
122 | SESR | ≤ 0.2
123 | FIWG | ≤ 0.2
124 | MDHY | ≤ 0.2
125 | LVIM | ≤ 0.2

Row | Variant | one-hybrid fitness for binding parS DNA
126 | LYMH | ≤ 0.2
127 | QSTV | ≤ 0.2
128 | MIKI | ≤ 0.2
129 | LERV | ≤ 0.2
130 | VRPC | ≤ 0.2
131 | LRHS | ≤ 0.2
132 | NTVH | ≤ 0.2
133 | RVPE | ≤ 0.2
134 | GDHG | ≤ 0.2
135 | IWRM | ≤ 0.2
136 | ICFR | ≤ 0.2
137 | RYPE | ≤ 0.2
138 | LKII | ≤ 0.2
139 | SIHG | ≤ 0.2
140 | RFVQ | ≤ 0.2
141 | AANW | ≤ 0.2
142 | CSIN | ≤ 0.2
143 | TGYL | ≤ 0.2
144 | VITL | ≤ 0.2
145 | DVER | ≤ 0.2
146 | QGWN | ≤ 0.2
147 | MECS | ≤ 0.2
148 | QCAM | ≤ 0.2
149 | KAYR | ≤ 0.2
150 | QKVW | ≤ 0.2

Row | Variant | one-hybrid fitness for binding parS DNA
151 | YWKC | ≤ 0.2
152 | CHDR | ≤ 0.2
153 | QRHM | ≤ 0.2
154 | HNNC | ≤ 0.2
155 | RFWV | ≤ 0.2
156 | GEKT | ≤ 0.2
157 | TNDW | ≤ 0.2
158 | WTPT | ≤ 0.2
159 | SAMS | ≤ 0.2
160 | YECG | ≤ 0.2
161 | TRRP | ≤ 0.2
162 | QIES | ≤ 0.2
163 | AYKF | ≤ 0.2
164 | CPQC | ≤ 0.2
165 | DCQM | ≤ 0.2
166 | RFWE | 0.211
167 | RSYN | 0.406
168 | SEWI | ≤ 0.2
169 | NPAG | ≤ 0.2
170 | VNHR | ≤ 0.2
171 | ADNG | ≤ 0.2
172 | PRST | ≤ 0.2
173 | CLIT | ≤ 0.2
174 | YCTL | ≤ 0.2
175 | YDRG | ≤ 0.2

Row | Variant | one-hybrid fitness for binding parS DNA
176 | SACG | ≤ 0.2
177 | SFMT | ≤ 0.2
178 | LFAL | ≤ 0.2
179 | TCMG | ≤ 0.2
180 | VSPP | ≤ 0.2
181 | QAGL | ≤ 0.2
182 | DHQQ | ≤ 0.2
183 | LNVT | ≤ 0.2
184 | QHME | ≤ 0.2
185 | NQLR | ≤ 0.2
186 | SGEG | ≤ 0.2
187 | IKVT | ≤ 0.2
188 | QPVV | ≤ 0.2
189 | IQLS | ≤ 0.2
190 | YMYR | ≤ 0.2
191 | QDAV | ≤ 0.2
192 | WIHR | ≤ 0.2
193 | CNGS | 0.22
194 | CRPV | ≤ 0.2
195 | GRDR | ≤ 0.2
